Source: PMC12136788
This is one part of the list.

T1: UNK ZnF1-3 (human, UniProt Q9C0B0 31-174)
T1 sequence: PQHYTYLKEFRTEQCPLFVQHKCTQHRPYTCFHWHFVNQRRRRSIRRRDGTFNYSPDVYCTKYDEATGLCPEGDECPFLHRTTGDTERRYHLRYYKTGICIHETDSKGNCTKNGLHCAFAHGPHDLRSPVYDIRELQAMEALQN

B1: chr9:14812383:14812384:-_ENSMUSG00000031934_ENSMUST00000164273|mus_mus|mus_mus_mus_hu_True|28_98 (ssRNA)
RNA: GGGAGUUCUACAGUCCGACGAUCAUAGCCCAGGUAGAUACAUGCCAACAGUAUAAUGAUGAGUGUCAGCAGGCGGCAGCUAAUGUACUUGAUGAUUAAAUUAUUAGAGUUCUUUUUUGUCUUCAAGUACUGCUCCACAAUUGGCAACAGAGGAUUGAGCAUCA
B2: chr7:56126341:56126342:+_ENSG00000146731_ENST00000540286|hu_mus|hu_hu_hu_mus_True|78_78 (ssRNA)
RNA: GGGAGUUCUACAGUCCGACGAUCCAUGUUUCUCCUCUUGGCUCUGCGCAGAGCUACUAUGCCUUCUUUCGCAAGGGCAUCUAAGGAAAAGGGGUCAAUCCCCUUUUGAUUAAUAACGACAAAUCCUUUAUCUGAGUCACCACACAACAGAGGAUUGAGCAUCA
B3: 111187709_111187950_928_CDS_ENSMUSG00000021701_ENSMUST00000022212|mouse|control|control (ssRNA)
RNA: GGGAGUUCUACAGUCCGACGAUCCGUUUCUUUCAGAUUUGUGGUUUCGAAUGGAGGUCUUCCUAGCAGCAUCGUAUACAUUACACAGCCUAAGGCCCAGAUGUCUGAUUCACAGCCGUGUCCUUGUUUGUUGAGGACUUCGGGCAACAGAGGAUUGAGCAUCA
B4: chr14:76904430:76904431:+_ENSMUSG00000022010_ENSMUST00000022587|mus_mus|mus_mus_mus_hu_True|18_68 (ssRNA)
RNA: GGGAGUUCUACAGUCCGACGAUCUGCAGCCAAAAACACCCUCGUGGAAAAAAAGAGGGAACACCAGCAGCCUGGUUUAAGCUAGAUAAAAUCUUCUGGCUUUCCGCAGCCCAGGGAGUGAGAACGGACGGCAGCCCUAAUUUACAACAGAGGAUUGAGCAUCA
B5: chr2:216981417:216981418:+_ENSG00000079246_ENST00000392132|hu_hu|hu_hu_hu_mus_True|18_18 (ssRNA)
RNA: GGGAGUUCUACAGUCCGACGAUCCUGAUACUGGUCCUUGCCAGCAAGGGCAUUAUCAGUGCCAUCUGUGCCAUAGAGGACUAACGCAAUCUCAUCUUUGCUCUCCGAAAAUACCUGUCGCUGUACAAACAUAGUCAUCACUUUCAACAGAGGAUUGAGCAUCA
B6: chr12:48362563:48362564:+_ENSG00000134291_ENST00000256686|hu_hu|hu_hu_hu_mus_False|48_98 (ssRNA)
RNA: GGGAGUUCUACAGUCCGACGAUCUCCGUCAAGCCCUUCAAGCCCCACUUGCGGGGGAAACUGUAAUCACUUUGUAUGGGGAAGGAAAAAAAAAGCCAAAAACUUUCCAAAAAGCGGGGGUGGGGUGAGGCGGGAGGGGGAGGUCAACAGAGGAUUGAGCAUCA
B7: chr8:127356239:127356240:+_ENSMUSG00000036913_ENSMUST00000167588|mus_mus|motif|central (ssRNA)
RNA: GGGAGUUCUACAGUCCGACGAUCCACCCUGCUAUCAGCAUAUUGCUCCCUGGCUCUGGAUUCCUUCAGGCCACAGGGCAGCGGAGGACAUUUUGGAACCACAUAAAGAUCUGAAGGUACAGCCUGGACCACACACGGUGUGAGCAACAGAGGAUUGAGCAUCA
B8: chr19:53983630:53983631:+_ENSMUSG00000024975_ENSMUST00000025931|mus_hu|FALSE|FALSE (ssRNA)
RNA: GGGAGUUCUACAGUCCGACGAUCAUUUCCAUUUAUUUCAUUCUUUAUUUCCUCAGUCCCAGCAUUUUCUUCAUCACCGGAAAAGAGAGAGUCACUUAAGUUAUCAGGAUCUGCAGGGUUUACAUUCAGUAUCUGCUCAUUUUCCAACAGAGGAUUGAGCAUCA
B9: 119142600_119142720_287_ncRNA_ENSMUSG00000041477_ENSMUST00000149651|mouse|control|control (ssRNA)
RNA: GGGAGUUCUACAGUCCGACGAUCUAACUGUGCUGAGAGGUGACUCUGCUUCAAGCACUUCACUUCUCAGGUAUAGGUCACAGUGACAGGACCUUGCCGUUCGAUGUGCGUUUCCAGAGACGACAGUUCUAUUGACGUGGCACUCAACAGAGGAUUGAGCAUCA
B10: chr17:30807568:30807569:+_ENSG00000108671_ENST00000457654|hu_mus|FALSE|FALSE (ssRNA)
RNA: GGGAGUUCUACAGUCCGACGAUCGUAGAGGGAGUCCACUACUUUACUCAUGUUCUGAAUAGUUUCCAGAGCAGCUUCAUAAGUUUUAUCUACUGGGGGUUCAUCGAAAAUGAUCAGGACACCCUCCCCCUGGUCCAAAAUCCCCAACAGAGGAUUGAGCAUCA
B11: chr4:123027775:123027776:-_ENSMUSG00000028649_ENSMUST00000154824|mus_mus|FALSE|FALSE (ssRNA)
RNA: GGGAGUUCUACAGUCCGACGAUCUUAUCUUGCUGAUAUAGCAAGUCAAGUUUAUAAAGAAGAUGCAUUUAGGAAUAAUCCUAAAAGAUAAAGCAGGUUUAUAACCCUGCACCACAUGAAACCCUAUUUAGAGGCUUUUCUUUUCAACAGAGGAUUGAGCAUCA
B12: 62659226_62659346_169_3pUTR_ENSMUSG00000032244_ENSMUST00000034775|mouse|control|control (ssRNA)
RNA: GGGAGUUCUACAGUCCGACGAUCGCGCCGCCGCCGUGUCCAGGCAGCAGCGCGACCCAGGGAGGGCGGAGACGCAGAGGUGGCCGAGCACCGCCGGAGGCACAAGUGGGACCCGGCCCGGGCGGGGAGAAGGACGGUCAGGGCCAACAGAGGAUUGAGCAUCA
B13: 3359495_3367888_967_CDS_ENSMUSG00000025899_ENSMUST00000053407|mouse|control|control (ssRNA)
RNA: GGGAGUUCUACAGUCCGACGAUCGGUAUCAAAUUUUCGAGGUGUAAUUCCAUGAGUCCAAAGGUAUCUAGAUUCUCCUGUCAUCACCAGCAAACUCCGACGAGGUAACAUAACUUGUACUGUGACACCCUCUGGAUGCUUGAACAACAGAGGAUUGAGCAUCA
B14: chr4:17845017:17845018:+_ENSG00000109805_ENST00000514176|hu_mus|hu_hu_hu_mus_False|18_28 (ssRNA)
RNA: GGGAGUUCUACAGUCCGACGAUCGCUCUCUUAACUUGUAUCUUCAUUAAGGAACUCUGCAAGGUUAAGUUUACUUUUCUGUAGCGCAGCUGUUUUGGCUCGUCUGGUAGUCUCAUCUUCAUUUCUGGAUGGUGGUUCAUGAUCCAACAGAGGAUUGAGCAUCA

Biological target: T1, UNK ZnF1-3
Assay: nsRBNS (natural sequence RNA bind-n-seq); RBNS binding buffer (assumed for nsRBNS): 25 mM Tris pH 7.5, 150 mM KCl, 3 mM MgCl2, 0.01% Triton X-100, 500 ug/ml BSA, 20 U/ml SUPERase-In, 4 C; UNK is unkempt and MSI1 is Musashi-1; names of the RNAs are library labels; protein concentration not given here; high values mean tight binding

| Binder | binding signal |
| --- | --- |
| B1 | 1.7 enrichment R |
| B2 | 0.673 enrichment R |
| B3 | 0.736 enrichment R |
| B4 | 1.79 enrichment R |
| B5 | 0.819 enrichment R |
| B6 | 2.21 enrichment R |
| B7 | 0.847 enrichment R |
| B8 | 0.855 enrichment R |
| B9 | 0.426 enrichment R |
| B10 | 0.94 enrichment R |
| B11 | 0.62 enrichment R |
| B12 | 2.41 enrichment R |
| B13 | 1.67 enrichment R |
| B14 | 0.406 enrichment R |
